# Data: the BET-seq Pho4 binding data (Le et al. 2018)
# Some of the results follow. Values were computed here from the reads of four pooled replicates and scatter widely.
# Biological target: T1, Pho4 (S. cerevisiae) (UniProt P07270)
# T1 sequence: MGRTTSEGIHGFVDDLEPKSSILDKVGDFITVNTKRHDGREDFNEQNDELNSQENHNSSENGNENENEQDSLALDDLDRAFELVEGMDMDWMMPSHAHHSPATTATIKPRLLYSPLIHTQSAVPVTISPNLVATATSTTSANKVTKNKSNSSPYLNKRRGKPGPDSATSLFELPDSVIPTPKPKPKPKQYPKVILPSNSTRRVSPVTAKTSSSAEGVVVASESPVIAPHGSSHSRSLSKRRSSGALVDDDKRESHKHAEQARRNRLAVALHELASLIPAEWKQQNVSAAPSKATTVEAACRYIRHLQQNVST
# Test: relative binding free energy (BET-seq); higher = weaker binding
# Conditions: reference: library average
row,Sequence,relative binding free energy [kcal/mol]
1,GTTGACACGTGTTGCT,-0.1
2,TGTTTCACGTGATGCT,0.39
3,GAAAGCACGTGGGTGG,-0.09
4,TGTGGCACGTGGAAAT,0.05
5,TGGAACACGTGGGAGC,-0.02
6,TGGCGCACGTGGGCGA,-0.25
7,ATGTACACGTGGAGTT,0.08
8,TGGGGCACGTGGCGCG,-0.25
9,GGGGACACGTGGCATA,-0.02
10,ATAGTCACGTGATTCG,0.16
11,GGGAGCACGTGTGAAA,0
12,TGTATCACGTGTTCGA,0.08
13,TTACGCACGTGGGGTG,-0.24
14,TTGTTCACGTGTCTTG,0.41
15,GTGTACACGTGTTCTT,0.04
16,TCGTTCACGTGAGTTG,0.47
17,TTATGCACGTGCAGTA,-0.03
18,CTGATCACGTGTGCGG,0.05
19,GAGCTCACGTGTGGTA,0.24
20,GCGGCCACGTGGAGGG,-0.12
21,GAATCCACGTGGGTTT,0.1
22,GGGCGCACGTGGTGAT,-0.11
23,TGGTCCACGTGGATAT,0.01
24,TGTTCCACGTGCGGAT,0.13
25,CGATTCACGTGGTTGG,0.07

row,Sequence,relative binding free energy [kcal/mol]
1,AAAGACACGTGATGTG,0.13
2,CTGGTCACGTGTAGAT,0.28
3,TGCGTCACGTGTATAG,-0.01
4,ACTGTCACGTGTGGCT,0.14
5,TATGACACGTGGTGCG,-0.08
6,TAGGCCACGTGAGGAG,0.13
7,TATAACACGTGTGTGG,-0.1
8,TATGCCACGTGTGGGA,-0.1
9,ACTTTCACGTGGTGCT,0.15
10,TTCTGCACGTGATTTT,0.08
11,TACTTCACGTGTTGTT,0.19
12,TAATTCACGTGTTCGG,0.23
13,ATAGACACGTGTTGTG,-0.12
14,AGAAGCACGTGGGATA,-0.14
15,AATTTCACGTGGAATT,0.43
16,AATAGCACGTGTTCTG,-0.13
17,TTCATCACGTGATGGG,0.19
18,TGGGCCACGTGCTTGT,-0.22
19,ATAGACACGTGTTTGG,0.03
20,CATATCACGTGGTTTT,0.12
21,CGGGTCACGTGTTTCT,0.24
22,ATTAACACGTGGGCTG,-0.02
23,GGGTGCACGTGCATAT,-0.01
24,TGACACACGTGGTGTG,0
25,TAATACACGTGTGATG,0.14

row,Sequence,relative binding free energy [kcal/mol]
1,TTCTTCACGTGAGTGA,0.46
2,CGATACACGTGTAGTG,0.26
3,TTCTACACGTGGGGGG,0
4,CTATGCACGTGTAGGA,-0.03
5,TAGGGCACGTGGAGCT,-0.17
6,GGAGTCACGTGGGCAT,-0.03
7,TCATTCACGTGGGTAG,0.02
8,ATAATCACGTGAGATG,0.3
9,CTGTGCACGTGGGGAA,-0.3
10,CGGAGCACGTGGCTGG,-0.25
11,GCGTACACGTGGGGGA,-0.15
12,TGTTTCACGTGTAACT,0.32
13,GGATACACGTGTTGTG,0.08
14,ATGGTCACGTGGGCCA,-0.14
15,CTGGTCACGTGGGGGT,-0.05
16,CGAGGCACGTGGTTTT,-0.19
17,GTTGTCACGTGTGGCT,0.22
18,TCCTGCACGTGTGGGT,-0.01
19,GGGCGCACGTGAAAGG,0.16
20,CTTGGCACGTGATGTT,0.04
21,GATGGCACGTGGAGGT,0.03
22,TGCGACACGTGGTTTA,0.01
23,GTTTACACGTGGCAGT,0.21
24,GTAGGCACGTGGTGGG,-0.08
25,CGTGGCACGTGGAGTA,-0.12

row,Sequence,relative binding free energy [kcal/mol]
1,AGTATCACGTGCGTGA,0.07
2,CGAGTCACGTGAAAGT,0.42
3,TTATGCACGTGTTCAG,0.04
4,TTGGTCACGTGAATTC,0.43
5,ATTTTCACGTGGTTCA,0.11
6,TAGGGCACGTGAGGAT,0.17
7,TGTACCACGTGCGGTT,-0.07
8,GTCCTCACGTGGAGGT,0.31
9,CGGATCACGTGTTGTA,0.2
10,AGGGGCACGTGAGAGA,0.17
11,TGGCTCACGTGGTGGT,0.21
12,GTCGTCACGTGCGGGG,-0.03
13,TCATGCACGTGAAGGG,0.15
14,TTTGTCACGTGCGGAC,0.16
15,TGGTACACGTGGATCG,0.09
16,AGTGACACGTGCGAGT,-0.04
17,GTTTGCACGTGGTGGC,0.06
18,GGAACCACGTGGGGTT,-0.02
19,ACTGTCACGTGATTGG,0.29
20,CTGGGCACGTGATTGA,-0.02
21,ATGAACACGTGAAAGT,0.31
22,AGTAACACGTGTGGAG,0.03
23,GCGATCACGTGTGCGG,0.18
24,TGGTGCACGTGTGTCG,-0.05
25,TTATGCACGTGATGTA,-0.01

row,Sequence,relative binding free energy [kcal/mol]
1,TAATTCACGTGGTGTT,0.27
2,GTTGTCACGTGATGCA,0.27
3,GGTATCACGTGATGAA,0.21
4,CGGGGCACGTGGTATT,-0.11
5,CGGATCACGTGTTTAT,0.11
6,GTGTGCACGTGTTGTA,0.01
7,GTACTCACGTGGGGGC,0.09
8,TAATACACGTGGTAGG,0.07
9,GGATTCACGTGGTCTG,0.13
10,TGTAGCACGTGTGGGT,0.06
11,TGTAGCACGTGGGATC,-0.09
12,TCTGTCACGTGAGGCG,0.17
13,CTTTGCACGTGGGTCT,-0.07
14,TGATACACGTGAGGCT,0.41
15,AGGTACACGTGGTCGG,0.01
16,TTGTGCACGTGAAATA,0.47
17,TTGACCACGTGTTTGC,0.15
18,CAAGGCACGTGTGTGG,-0.15
19,CTTAGCACGTGGGAAG,-0.02
20,GTCTCCACGTGGTGGT,0.06
21,TGTATCACGTGGTTCT,0.09
22,GTTAGCACGTGTAGAA,-0.06
23,TGGTTCACGTGCGATA,0.34
24,TGCATCACGTGAGAGT,0.33
25,CTGGTCACGTGTTAGG,0.16

row,Sequence,relative binding free energy [kcal/mol]
1,TTGAGCACGTGATGTG,0.02
2,TTCTTCACGTGGATTA,0.41
3,CGTATCACGTGGGGTA,-0.08
4,GTGTCCACGTGTTAAG,0.22
5,AGGGGCACGTGCGGCG,-0.26
6,TGACTCACGTGAAGGA,0.54
7,TCAGGCACGTGGTAGT,-0.22
8,GCTTGCACGTGTGGGT,0.05
9,TTGTCCACGTGCTAGT,0.08
10,CGGTACACGTGGGATG,-0.09
11,GGATGCACGTGGGTGA,-0.15
12,ATATTCACGTGGTTAA,0.07
13,TGCGACACGTGGAGGT,-0.05
14,ATCTGCACGTGAGTGG,0.12
15,TGATTCACGTGTAGAA,0.2
16,GGTGCCACGTGGGTAT,-0.15
17,GGTAACACGTGGTGCT,-0.04
18,AATGACACGTGTAATG,0.07
19,GGGTTCACGTGATTCT,0.35
20,TGTTACACGTGTCGTC,0.22
21,AAGTACACGTGTCGTG,0.13
